Structures are written as SMILES. This is one part of the list.

In one assay the test system is HSkMC. Nature of the assay: cytotoxicity call (relative viability < 0.9). The conditions noted are these: 10 µM.
The next assay deals with HepG2. The assay can be described thus: cytotoxicity call (relative viability < 0.9). The conditions noted are these: 10 µM.
For a further assay, the system named is S. aureus RN4220. The assay can be described thus: growth inhibition call (relative growth <= 0.2). The following applies: 50 µM.

Take `CN(C)CCCNC(=O)C[C@@H]1CC[C@H]2[C@@H](COc3ccc(NC(=O)c4ccccc4F)cc3C(=O)N2C)O1`: the cytotoxicity call in the assay with HSkMC and with HepG2 was “inactive” each time. Besides, in the assay with S. aureus RN4220, the growth inhibition call is “inactive”.

`C[C@@H]1CN([C@@H](C)CO)C(=O)c2cc(NS(=O)(=O)c3cn(C)cn3)ccc2O[C@@H](C)CCCCO[C@H]1CN(C)Cc1ccc(C(F)(F)F)cc1`: the cytotoxicity call in the assay with HSkMC and in the assay on HepG2 was “inactive” each time. Moreover, the growth inhibition call in the assay on S. aureus RN4220 was “inactive”.

In the case of `C[C@@H]1CCCCO[C@H](CN(C)C(=O)Nc2cccc3ccccc23)[C@H](C)CN([C@H](C)CO)C(=O)c2cc(NS(=O)(=O)c3ccc(F)cc3)ccc2O1`, the cytotoxicity call in the assay with HSkMC was “inactive”. In the assay with HepG2, the cytotoxicity call was “active”. The growth inhibition call in the assay on S. aureus RN4220 was “inactive”.

Consider `O=C(O)c1n[nH]c2c1C[C@H]1C[C@@H]21`, for which the cytotoxicity call in the assay on HSkMC and in the assay on HepG2 was “inactive” throughout. For the same compound, the growth inhibition call in the assay with S. aureus RN4220 is “inactive”.

`Cc1ccc(S(=O)(=O)Nc2ccc3c(c2)C(=O)N([C@H](C)CO)C[C@H](C)[C@H](CN(C)C(=O)Cc2ccccc2)OCCCC[C@@H](C)O3)cc1`: the cytotoxicity call with HSkMC and with HepG2 was “inactive” each time. Besides, in the assay on S. aureus RN4220, the growth inhibition call is “inactive”.

Take `C[C@H](CO)N1C[C@H](C)[C@@H](CN(C)S(=O)(=O)c2ccc(F)cc2)OCCCC[C@H](C)Oc2ccc(NC(=O)Cc3ccccc3)cc2C1=O`: the cytotoxicity call in the assay on HSkMC and with HepG2 was “inactive” throughout. Moreover, the growth inhibition call with S. aureus RN4220 was “inactive”.

Take `Cc1ccc(S(=O)(=O)Nc2ccc3c(c2)C(=O)N(C)[C@@H]2CC[C@@H](CC(=O)NCCc4ccncc4)O[C@@H]2CO3)cc1`: the cytotoxicity call in the assay on HSkMC and in the assay with HepG2 was “inactive” each time. Also, in the assay with S. aureus RN4220, the growth inhibition call was “inactive”.

For the compound `C[C@@H]1CN([C@@H](C)CO)C(=O)c2cc(NS(=O)(=O)c3cn(C)cn3)ccc2O[C@H]1CN(C)Cc1ccncc1`, the cytotoxicity call in the assay with HSkMC and in the assay on HepG2 was “inactive” throughout. Besides, the growth inhibition call in the assay on S. aureus RN4220 was “inactive”.

With `Cc1ccc(S(=O)(=O)Nc2ccc3c(c2)C(=O)N([C@@H](C)CO)C[C@@H](C)[C@@H](CN(C)C(=O)C2CCCCC2)OCCCC[C@@H](C)O3)cc1`, the cytotoxicity call with HSkMC and in the assay with HepG2 was “inactive” in each case. Moreover, the growth inhibition call in the assay with S. aureus RN4220 was “inactive”.

For the compound `C[C@H]1CN([C@@H](C)CO)S(=O)(=O)c2ccc(-c3ccc(F)cc3)cc2O[C@H]1CN(C)S(C)(=O)=O`, the cytotoxicity call with HSkMC and with HepG2 was “inactive” throughout. For the same compound, the growth inhibition call in the assay with S. aureus RN4220 was “inactive”.

Turning to `N=C(N)N1CCc2ccccc2C1.O=S(=O)(O)O`, the cytotoxicity call in the assay with HSkMC and in the assay on HepG2 was “inactive” each time. Moreover, in the assay with S. aureus RN4220, the growth inhibition call is “inactive”.

On to `CO[C@H]1CN(C)C(=O)c2cc(NC(=O)NC(C)C)ccc2OC[C@@H](C)N(Cc2ccc(-c3ccccn3)cc2)C[C@@H]1C`, for which the cytotoxicity call in the assay on HSkMC and in the assay on HepG2 was “inactive” throughout. Further, the growth inhibition call in the assay with S. aureus RN4220 was “inactive”.

As for `C[C@H]1CN([C@@H](C)CO)C(=O)c2cccc(NS(C)(=O)=O)c2O[C@@H]1CN(C)C(=O)NC1CCCCC1`, the cytotoxicity call in the assay on HSkMC and in the assay with HepG2 was “inactive” each time. Also, the growth inhibition call in the assay on S. aureus RN4220 was “inactive”.

With `CCOC(=O)N(C)C[C@@H]1OCc2cnnn2CCCC(=O)N([C@H](C)CO)C[C@@H]1C`, the cytotoxicity call in the assay on HSkMC and in the assay on HepG2 was “inactive” throughout. Further, the growth inhibition call with S. aureus RN4220 is “inactive”.

Turning to `C[C@@H]1CN([C@H](C)CO)C(=O)Cc2cc(NS(=O)(=O)c3ccc(Cl)cc3)ccc2O[C@H]1CN(C)Cc1ccc(Cl)c(Cl)c1`, the cytotoxicity call in the assay on HSkMC was “active”. The cytotoxicity call with HepG2 was “inactive”. The growth inhibition call in the assay with S. aureus RN4220 was “inactive”.

For `COCC(=O)N1C[C@@H](C)[C@@H](OC)CN(C)C(=O)c2cc(NC(=O)c3ccc(OC)cc3)ccc2OC[C@H]1C`, the cytotoxicity call with HSkMC and with HepG2 was “inactive” throughout. Moreover, in the assay on S. aureus RN4220, the growth inhibition call was “inactive”.

Take `COc1cccc(-c2cnc3c(c2)C(=O)N([C@H](C)CO)C[C@H](C)[C@H](CN(C)S(=O)(=O)c2cn(C)cn2)O3)c1`: the cytotoxicity call with HSkMC and with HepG2 was “inactive” in each case. Moreover, the growth inhibition call in the assay with S. aureus RN4220 is “inactive”.

As for `C[C@@H]1CN([C@H](C)CO)C(=O)c2cccc(NC(=O)CCCCCC(=O)Nc3ccccc3N)c2O[C@H]1CN(C)CC1CCCCC1`, the cytotoxicity call in the assay on HSkMC was “inactive”. In the assay on HepG2, the cytotoxicity call is “active”. For the same compound, the growth inhibition call in the assay on S. aureus RN4220 is “inactive”.

With `C[C@H]1COC(=O)[C@@H](Cc2ccc(F)cc2)CCC=CC[C@@H](CC(=O)N[C@H](CO)Cc2ccccc2)C(=O)N1`, the cytotoxicity call in the assay on HSkMC and in the assay with HepG2 was “inactive” throughout. Also, the growth inhibition call in the assay on S. aureus RN4220 was “inactive”.

For `CC(C)(C(=O)O)c1ccc([C@@H](O)CCCN2CCC(C(O)(c3ccccc3)c3ccccc3)CC2)cc1`, the cytotoxicity call in the assay with HSkMC and with HepG2 was “inactive” throughout. For the same compound, the growth inhibition call with S. aureus RN4220 is “inactive”.

For `CCN1[C@H](C(=O)NCCOC)[C@@H](CO)[C@@H]2Cn3c(ccc(-c4ccc(C(=O)N(C)C)cc4)c3=O)[C@@H]21`, the cytotoxicity call in the assay with HSkMC and in the assay on HepG2 was “inactive” throughout. For the same compound, the growth inhibition call in the assay with S. aureus RN4220 was “inactive”.

With `C[C@@H]1CCCCO[C@H](CN(C)S(=O)(=O)c2cccs2)[C@@H](C)CN([C@H](C)CO)C(=O)c2cc(NS(=O)(=O)c3cn(C)cn3)ccc2O1`, the cytotoxicity call with HSkMC and in the assay with HepG2 was “inactive” each time. For the same compound, the growth inhibition call with S. aureus RN4220 is “inactive”.

With `CN(C)C(=O)N1CCOC[C@@]2(C1)CN(c1cnn(C)c1)C(=O)CO2`, the cytotoxicity call with HSkMC and with HepG2 was “inactive” each time. Besides, in the assay on S. aureus RN4220, the growth inhibition call is “inactive”.

As to `COc1ccc(CN(C)C[C@H]2OCCCC[C@H](C)Oc3ccc(NC(=O)Cc4ccccc4)cc3C(=O)N([C@@H](C)CO)C[C@@H]2C)cc1`, the cytotoxicity call in the assay with HSkMC and in the assay with HepG2 was “inactive” throughout. Further, the growth inhibition call in the assay on S. aureus RN4220 was “inactive”.

On to `Cc1noc(C)c1S(=O)(=O)Nc1ccc2c(c1)CC(=O)N([C@@H](C)CO)C[C@H](C)[C@@H](CN(C)C(=O)Nc1ccccc1)O2`, for which the cytotoxicity call in the assay with HSkMC and in the assay on HepG2 was “inactive” in each case. Besides, the growth inhibition call with S. aureus RN4220 was “inactive”.

For `C[C@@H]1CN([C@@H](C)CO)C(=O)Cc2cc(NC(=O)Nc3ccc(C(F)(F)F)cc3)ccc2O[C@@H]1CN(C)C(=O)Nc1ccc(C(F)(F)F)cc1`, the cytotoxicity call with HSkMC and in the assay on HepG2 was “active” in each case. In addition, the growth inhibition call with S. aureus RN4220 was “inactive”.

For the compound `Cc1noc(C)c1S(=O)(=O)Nc1ccc2c(c1)C(=O)N([C@H](C)CO)C[C@H](C)[C@@H](CN(C)S(=O)(=O)c1c(C)noc1C)O2`, the cytotoxicity call with HSkMC and in the assay with HepG2 was “inactive” in each case. Moreover, in the assay with S. aureus RN4220, the growth inhibition call was “inactive”.

As for `C[C@@H]1CN([C@@H](C)CO)C(=O)c2cc(NC(=O)CCC(F)(F)F)ccc2O[C@@H](C)CCCCO[C@H]1CN(C)Cc1ccc(Cl)c(Cl)c1`, the cytotoxicity call in the assay on HSkMC and with HepG2 was “inactive” throughout. Moreover, in the assay with S. aureus RN4220, the growth inhibition call is “inactive”.

As for `CCNC(=S)N1CCCC[C@@H]1CO`, the cytotoxicity call in the assay on HSkMC and with HepG2 was “inactive” in each case. Also, the growth inhibition call with S. aureus RN4220 is “inactive”.

Regarding `COc1ccc(NC(=O)Nc2ccc3c(c2)C(=O)N([C@H](C)CO)C[C@H](C)[C@@H](CN(C)Cc2ccccc2)OCCCC[C@H](C)O3)cc1`, the cytotoxicity call in the assay on HSkMC and in the assay on HepG2 was “inactive” each time. For the same compound, the growth inhibition call in the assay on S. aureus RN4220 was “inactive”.

With `C[C@@H]1CCCCO[C@@H](CN(C)C(=O)Nc2cccc3ccccc23)[C@H](C)CN([C@@H](C)CO)C(=O)c2cc(NC(=O)Nc3ccc4c(c3)OCO4)ccc2O1`, the cytotoxicity call in the assay with HSkMC and with HepG2 was “inactive” in each case. Further, the growth inhibition call with S. aureus RN4220 is “inactive”.

As to `C[C@@H]1CN([C@H](C)CO)C(=O)Cc2cc(NS(=O)(=O)c3ccccc3)ccc2O[C@@H]1CN(C)S(=O)(=O)c1cn(C)cn1`, the cytotoxicity call in the assay on HSkMC and in the assay on HepG2 was “inactive” in each case. Further, the growth inhibition call in the assay with S. aureus RN4220 is “inactive”.

Take `O=C(C[C@H]1CC[C@@H]2[C@H](COC[C@H](O)CN2S(=O)(=O)c2ccc(F)cc2)O1)NCCN1CCCCC1`: the cytotoxicity call in the assay with HSkMC and in the assay with HepG2 was “inactive” throughout. Moreover, in the assay on S. aureus RN4220, the growth inhibition call is “inactive”.

For the compound `COc1cccc(S(=O)(=O)N(C)C[C@@H]2Oc3ncc(C#CC(C)(C)O)cc3C(=O)N([C@H](C)CO)C[C@@H]2C)c1`, the cytotoxicity call in the assay on HSkMC (human skeletal muscle cells) and in the assay on HepG2 was “inactive” each time. In addition, the growth inhibition call in the assay on S. aureus RN4220 is “inactive”.

Values taken from the antibiotic and cytotoxicity screens of Wong et al. (2023).
